The values that follow come from PubChem BioAssay AID1347073 (National Center for Advancing Translational Sciences (NCATS), 2019).

Out of some 45,000 compounds screened, about 200 (0.44%) were called active. Inconclusive results (about 7%) are left out. The call rests on the fitted dose curve; in most records, active means well fitted activation curve with a large enough effect; inconclusive means small, poorly fitted or top-dose-only effect; inactive means no such curve, though single readings can be large or run the other way. This is one part of the list.

A short description of this test: qHTS of TDP-43 Inhibitors: NCGC Sytravon Library Screen. Further: 0% is about no effect; nearly all actives have a fitted effect of over 55% in size. To be noted: yeast TDP-43 toxicity rescue, BacTiter-Glo growth, 24 h; series mostly up to 46.1 µM; growth rescue (activation): at the top concentration. An outline of the steps: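 TDP-43-expressing yeast, pregrown in raffinose, seeded at OD600 0.02 in galactose medium with compound for 24 hr at 30 deg C. Growth read by BacTiter-Glo luminescence, so rescue of toxicity appears as activation.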
With `COc1ccc(/C=N/NC(=O)c2ccc(Cl)c(S(N)(=O)=O)c2)cc1OCC(N)=O`, the “growth rescue (activation)” value is inactive: 20.8%.

For the compound `COc1cc(SC)ccc1C(=O)Nc1ccc(S(=O)(=O)N2CCCC2)cc1`, the “growth rescue (activation)” value was inactive: -14.6%.

In the case of `NC(=O)CC[C@H](NC(=O)OCc1ccccc1)C(=O)OCc1ccc(Cl)cc1`, the “growth rescue (activation)” value is inactive: 10.1%.

Regarding `CCOc1ccc2c(c1)nc(C)n2C`, the “growth rescue (activation)” value was inactive: -6.95%.

With `CC1(C(=O)NS(=O)(=O)c2ccccc2)CCN1C(=O)Cc1ccc(Cl)cc1Cl` (stereo not drawn), the “growth rescue (activation)” value was inactive: -2.47%.

As to `CC(C)NC(=O)c1cc(C2CCCCN2C(=O)OCCF)on1` (stereo not drawn), the “growth rescue (activation)” value is inactive: 8.34%.

Turning to `Cn1c(SCC(=O)NC2CCCCC2)nnc1-c1ccccc1F`, the “growth rescue (activation)” value is inactive: 0.633%.

For the compound `O=C(O)c1ccc(NNC(=S)Nc2cc(C(F)(F)F)ccc2Cl)cc1`, the “growth rescue (activation)” value is inactive: 2.15%.

As to `CC(=O)Nc1ccc(/C(C)=N/NS(=O)(=O)c2ccccc2)cc1`, the “growth rescue (activation)” value is inactive: 14.5%.

For `O=C(Nc1ccc(C(=O)N2CCOCC2)cc1)c1cccc([N+](=O)[O-])c1`, the “growth rescue (activation)” value is inactive: -19.7%.

For the compound `COc1ccc(-c2nc(CNS(=O)(=O)c3ccccc3)cs2)cc1`, the “growth rescue (activation)” value is inactive: 0.869%.

Turning to `O=C(Nc1cccc(Cl)c1Cl)c1ccccc1OCC(=O)N1CCOCC1`, the “growth rescue (activation)” value is inactive: 6.52%.

Consider `O=S(=O)(NC1CCCCC1)c1cccs1`, for which the “growth rescue (activation)” value was inactive: 5.97%.

On to `C=C(C)C1CC=C(C)/C(=N/NC(=O)C2CC2c2ccccc2)C1` (stereo not drawn), for which the “growth rescue (activation)” value was inactive: -10.3%.

As to `COC(=O)C1CCN(CC(=O)Nc2ccccc2Sc2ccccc2)CC1`, the “growth rescue (activation)” value is inactive: 8.85%.

Take `CCCC(=O)N(c1ccc2oc(C)c(C(C)=O)c2c1)S(=O)(=O)c1ccc(C(=O)O)cc1`: the “growth rescue (activation)” value is inactive: -7.37%.

As for `O=C(COc1ccc(Br)cc1)NCCCNC(=O)c1cnccn1`, the “growth rescue (activation)” value is inactive: 0.494%.

Take `O=C(Nc1ccccn1)c1csc2c1CCCC2`: the “growth rescue (activation)” value is inactive: 34.4%.

Turning to `CCOC(=O)C1CCN(C(=O)CCc2c(C)nc3cc(-c4ccc(OC)cc4OC)nn3c2C)CC1`, the “growth rescue (activation)” value is inactive: 9.39%.

Consider `COc1ccccc1C(=O)NCCCNC(=O)c1cccnc1`, for which the “growth rescue (activation)” value is inactive: -14.6%.

`O=C(c1ccc(-c2ccccc2)cc1)C1CCCN(Cc2ccncc2)C1` (stereo not drawn): the “growth rescue (activation)” value was inactive: 11.2%.

Consider `O=C(OCC(=O)N1CCc2ccccc2C1)c1ccc(F)cc1Cl`, for which the “growth rescue (activation)” value is inactive: 2.45%.

On to `COc1ccc(NC(=O)Nc2cccnc2)c(OC)c1`, for which the “growth rescue (activation)” value is inactive: -0.628%.

As to `COc1ccc(NC(=O)NCCc2ccc(Cl)cc2)cc1OC`, the “growth rescue (activation)” value is inactive: 2.36%.

As to `O=C1NCCN(Cc2ccoc2)C1CC(=O)N(Cc1ccccc1)CC1CCC1` (stereo not drawn), the “growth rescue (activation)” value was inactive: 0.389%.

On to `COC(=O)Cc1ccc(NC(=S)NCc2ccccc2OC)cc1`, for which the “growth rescue (activation)” value is inactive: -5.49%.

As to `Cc1cc(C)n2c(nc3ccccc32)c1C(=O)NCc1ccccc1`, the “growth rescue (activation)” value was inactive: 15%.

Regarding `Cc1ccc(C(=O)NCC(=O)OCC(=O)c2ccc3c(c2)NC(=O)CO3)cc1`, the “growth rescue (activation)” value was inactive: 13.4%.

Consider `CC1Cc2ccccc2N1CC(=O)Nc1ccc(S(N)(=O)=O)cc1` (stereo not drawn), for which the “growth rescue (activation)” value was inactive: -12.2%.

As for `O=C(Nc1ccc(Br)cc1F)c1ccncc1`, the “growth rescue (activation)” value was inactive: -1.04%.

With `COc1cc(N(C(=O)Cc2cccs2)C(C(=O)NC2CCCCC2)c2cccc(OC)c2OC)ccc1-n1cnnn1` (stereo not drawn), the “growth rescue (activation)” value was inactive: 19.3%.

On to `Cc1c(N/C=C/C(=O)C(F)(F)F)c(=O)n(-c2ccccc2)n1C`, for which the “growth rescue (activation)” value is inactive: -6.95%.

As to `Cn1c(CC(=O)Nc2ccccc2)nnc1SCC(=O)NC1CCCC1`, the “growth rescue (activation)” value is inactive: -15.4%.

Consider `COc1ccc(CC(=O)OCC(=O)NCc2ccc(Cl)cc2)cc1`, for which the “growth rescue (activation)” value was inactive: 16.7%.

Regarding `CCc1nc2c(OCCOc3ccccc3)cccn2c1N(C)C(=O)c1cccs1`, the “growth rescue (activation)” value is inactive: -6.65%.

As for `CC1CCCCN1C(=O)CCn1c(=S)oc2ccccc21` (stereo not drawn), the “growth rescue (activation)” value is inactive: 21.2%.

In the case of `O=C(COc1ccccc1[N+](=O)[O-])OCC(=O)c1ccc(Br)s1`, the “growth rescue (activation)” value was inactive: 8.37%.

As for `O=C(COC(=O)c1cccc(S(=O)(=O)N2CCOCC2)c1)NCc1ccc2c(c1)OCO2`, the “growth rescue (activation)” value is inactive: 2.48%.

Turning to `COc1ccc(NC(=O)c2ccc(NS(=O)(=O)c3cccc4cccnc34)cc2)cc1`, the “growth rescue (activation)” value was inactive: -0.194%.

Regarding `CCCNC(=O)C1(C)CCN(C(=O)c2ccccc2OC)C1` (stereo not drawn), the “growth rescue (activation)” value was inactive: 0.915%.

For `O=C(NCc1cccc(C(F)(F)F)c1)c1ccc2sc(COCCO)nc2c1`, the “growth rescue (activation)” value was inactive: 2.57%.

With `CC(=O)c1ccc(OCC(=O)Nc2cccc(S(=O)(=O)N3CCCC3)c2)cc1`, the “growth rescue (activation)” value was inactive: -3.05%.

Take `N#Cc1cccc(NC(=O)CC2CCCC2)c1`: the “growth rescue (activation)” value is inactive: 23.7%.

Take `O=C(OCc1ccc([N+](=O)[O-])cc1)C1CC(=O)N(Cc2ccccc2)C1` (stereo not drawn): the “growth rescue (activation)” value was inactive: 21.2%.

For the compound `COc1ccc2[nH]c(=O)c(CNc3ccc(C)c(C)c3)cc2c1`, the “growth rescue (activation)” value is inactive: -0.0204%.

Consider `COc1ccc(N(C(=O)c2csnn2)C(C(=O)NC2CCCC2)c2cccs2)cc1` (stereo not drawn), for which the “growth rescue (activation)” value is inactive: 12.9%.

Take `CC(=O)c1ccc(OCC(=O)c2ccc(-c3ccccc3)cc2)cc1`: the “growth rescue (activation)” value was inactive: 28.4%.

Consider `CCC1CCCCN1CCN1C(=O)C2C(C(=O)Nc3cccc(OC)c3)C3C=CC2(O3)C1C(=O)NC1CCCCC1` (stereo not drawn), for which the “growth rescue (activation)” value is inactive: 11.5%.

With `CNC(=O)c1cc(Nc2nnc(-c3ccc(O)cc3)c3ccccc23)ccc1OC`, the “growth rescue (activation)” value is inactive: 5.94%.

For `Cn1c2ccccc2c2nnc(SCC(=O)NC3CC3)nc21`, the “growth rescue (activation)” value was inactive: 11.9%.

`Cc1ccccc1NC(=O)CSCCN1C(=O)c2ccccc2C1=O`: the “growth rescue (activation)” value was inactive: 14.8%.

Take `Cc1ccc(C(=O)NC(NCc2ccco2)C(Cl)(Cl)Cl)cc1` (stereo not drawn): the “growth rescue (activation)” value was inactive: 23.3%.

As to `CC(C)NC(=O)c1ccc(-c2cccc(C(F)(F)F)c2)o1`, the “growth rescue (activation)” value was inactive: 34.6%.
